# Measurements: PubChem BioAssay AID2101 (National Center for Advancing Translational Sciences (NCATS), 2009)
# Among all 330,000 compounds or so, about 300 (0.091%) were called active. Not shown: some 4% with an inconclusive outcome. The call rests on the fitted dose curve; in most records, active means well fitted inhibition curve with a large enough effect; inconclusive means small, poorly fitted or top-dose-only effect, or effect the other way, or another doubt; inactive means no such curve, though single readings can be large or run the other way. The entries are a selection whose mix differs from that of the whole data set.
# Molecular target: Lysosomal acid glucosylceramidase (Homo sapiens) (UniProt P04062)
# Test: qHTS Assay for Inhibitors and Activators of N370S glucocerebrosidase as a Potential Chaperone Treatment of Gaucher Disease;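 on activity change, negative = inhibition: 0% = full enzyme activity and -100% = no enzyme basal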
# Settings: N370S GC spleen homogenate, 4MU-glucoside fluorescence; series mostly up to 59.4 µM; activity change, negative = inhibition: at the top concentration
# Potency means the concentration at half of the fitted maximal effect.
SMILES,Potency,"activity change, negative = inhibition"
CNc1ncnc2ccc(-c3cccc(OC)c3)cc12,active: 8.91 µM,
COC(=O)[C@H]1[C@H]2CC3c4[nH]c5ccccc5c4CCN3C[C@@H]2CC[C@@H]1O (some centres not stated),inactive,
C[C@@H]1C(=O)O[C@H]2[C@@H](O)[C@@]34[C@H]5CC(C(C)(C)C)[C@]36[C@@H](OC(=O)[C@@H]6O)O[C@@]4(C(=O)O5)[C@@]12O (some centres not stated),,inactive: -7.45%
Cc1ccc(SCC(c2ccccc2)N2CCN(CCc3ccccc3)CCC2=O)cc1 (configuration not stated),,inactive: -7.54%
O=C(C1=C[C@H](c2csc3ccccc23)C[C@H](OCCCCO)O1)N1CCN(Cc2ccc3c(c2)OCO3)CC1,,inactive: -17%
C[C@@H]1C(=O)O[C@@H]2[C@H](O)C34[C@H]5C[C@@H](C(C)(C)C)C36[C@H](OC(=O)[C@@H]6O)OC4(C(=O)O5)[C@@]12O (some centres not stated),,inactive: -3.57%
CN1CCN(CC/C=C2/c3ccccc3Sc3ccc(S(=O)(=O)N(C)C)cc32)CC1,,inactive: -14.3%
CCCCCCCCCCCCC/C=C/[C@@H](O)[C@H](CO)NC(=O)CCCCCCC,,inactive: 1.7%
CC(Cc1cccc(C(F)(F)F)c1)NCCOC(=O)c1ccccc1 (configuration not stated),inactive,
O=C(/C=C/c1ccc(O)c(O)c1)OC(Cc1ccc(O)c(O)c1)C(=O)O (configuration not stated),inactive,
O=C(NCc1ccccc1)C1=C[C@@H](c2coc3ccccc3c2=O)C[C@@H](OCc2ccc(CO)cc2)O1,,inactive: 25.6%
COc1cccc(NC(=O)OCCN2CCN(Cc3ccccc3)CCC2=O)c1,,inactive: 3.83%
CC(Nc1nc(-c2ccccc2)nc2ccccc12)c1ccccc1 (configuration not stated),active: 5.01 µM,
C#CCOCCOCCOCCNc1nc(N2CCN(C(=O)CCCCCCCCCCNC(=O)[C@H](CCCN=C(N)N)n3cc(C[C@@H](C)CC)nn3)CC2)nc(N2CCN(C(=O)CCCCCCCCCCNC(=O)[C@@H]([C@H](C)CC)n3cc(CCCCCN)nn3)CC2)n1,active: 5.62 µM,
NNCCc1ccccc1,inactive,
COc1cc(C(CCN2CCOCC2)c2c(OC)cc(OC)c3c2OC(=O)CC3c2ccc(N(C)C)cc2)cc(OC)c1OC (configuration not stated),,inactive: -26.5%
CCCN1C(=O)/C(=C/c2nc3ccccc3c(=O)[nH]2)c2ccccc21,,inactive: 15.6%
Oc1cc2c(cc1O)[C@H]1c3ccc(O)c(O)c3OC[C@@]1(O)C2,inactive,
CC12CCC=CC1C(c1ccc3ccccc3c1)N(Cc1ccccc1)C2=O (configuration not stated),,inactive: 6.3%
Cc1ccc(Cl)cc1N1CCN(S(=O)(=O)c2ccc3[nH]c(=O)c(=O)[nH]c3c2)CC1,active: 8.91 µM,
COc1cccc(-c2nc(NCCc3c[nH]c4ccc(OC)cc34)c3ccccc3n2)c1,active: 14.1 µM,
Nc1nc(-c2ccccc2)cs1,,inactive: -1.13% [at 12.8 µM]
CCc1ccccc1OC[C@@H](O)CN[C@H]1CCCc2ccccc21,,inactive: -18.1%
O=C1OCCN1C(=O)[C@H]1[C@H](c2ccc(F)cc2)C(c2ccc(F)cc2)=NN1c1ccc(Br)cc1,,inactive: 10.7%
CN1C2CCC1CC(OC(=O)c1c[nH]c3ccccc13)C2 (configuration not stated),inactive,
COc1cc(OC)c2ccc(=O)oc2c1C(CC(=O)N1CCCC1)c1ccc(N(C)C)cc1 (configuration not stated),,inactive: 8.36%
CN1CCN(NC(=O)c2cn(-c3ccccc3)nc2-c2cccc(Br)c2)CC1,active: 10 µM,
